In PubChem BioAssay AID1508642 (National Center for Advancing Translational Sciences (NCATS), 2021):
Hit rate of the full screen: of about 43,000 compounds, about 200 (0.47%) were called active. Roughly 12% stayed inconclusive and do not appear here. Calls follow the shape of the dose curve; as a rule, active = well fitted cell-killing curve with a large enough effect; inconclusive = small, poorly fitted or top-dose-only effect, or effect the other way; inactive = flat fitted curve, though single readings scatter. The list shows a part of the results.

Assay: Cell viability qHTS assay in S16 Pmp22-F2sN cells; also: nearly all actives have a fitted effect of over 65% in size
Conditions: S16 Pmp22-F2sN Schwann cells (luciferase reporters placed in the Pmp22 gene) viability, CellTiter-Glo, 24 h; series mostly up to 57.5 µM; activity change, negative = cytotoxicity: at the top concentration
Outline: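 CellTiter-Glo counter-screen, qHTS, 1536-well. Cells: S16(c9) Pmp22-F2sN, 500-1,000/well in DMEM + 10% FBS. Cpd 23 nL pin transfer, 24 h, 37C/5% CO2. Read: luminescence, CCD imager.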
% is scaled to controls: 0 for no effect and ±100 for the full control effect.

| SMILES | activity change, negative = cytotoxicity |
| --- | --- |
| COc1cccc(C(=O)c2cn(CC(=O)Nc3cc(Cl)c(OC)cc3OC)c3nc(C)ccc3c2=O)c1 | inactive: 2.59% |
| Cc1cccc(C)c1NC(=O)NCCCN1CCN(c2ccccc2)CC1 | inactive: -24% |
| CC(C)(C)c1ccc(C(=O)NNc2ncnc3c2cnn3-c2ccc(Cl)cc2)cc1 | inactive: 1.54% |
| COc1cc(CN(C(=O)COc2ccc(Cl)cc2)c2ccccn2)cc(OC)c1OC | inactive: -1.12% |
| Cc1ccc(C)c(NC(=O)C2CCN(c3ncnc4c3nc3n4CCCCC3)CC2)c1 | inactive: -6.63% |
| Cc1ccc(C)c(NC(=O)CCCn2c(C)c3cnn(-c4ccccc4)c(=O)c3c2C)c1 | inactive: -7.26% |
| CCc1ccc(NC(=O)CSc2nc(C)c(C(=O)Nc3ccc(Cl)cc3)c(-c3ccc(OC)cc3)c2C#N)cc1 | inactive: -1.28% |
| CNC(=O)C1CCC(Cn2c(=O)c3sccc3n(CC(=O)NCc3ccc(C)cc3)c2=O)CC1 (stereo unspecified) | inactive: 1.01% |
| Cc1cc(C)c2c(n1)SCC(=O)N2CC(=O)Nc1ccccc1C | inactive: -0.459% |
| Cn1c(=O)oc2cc(S(=O)(=O)N3CCCC(C(=O)NCc4ccccc4Cl)C3)ccc21 (stereo unspecified) | inactive: 2.58% |
| COc1ccc(NC(=O)Cn2c(=O)oc3cc(Cl)ccc32)c(OC)c1 | inactive: 10.1% |
| O=C(CSc1nc2c([nH]c3ccccc32)c(=O)n1-c1ccccc1)N1CCCc2ccccc21 | inactive: 2.35% |
| Cc1ccccc1C(=O)Nc1sc2c(c1C(=O)O)CCC(C(C)(C)C)C2 (stereo unspecified) | inactive: -4.33% |
| O=C(CSc1nc2c([nH]c3ccccc32)c(=O)n1-c1ccc(F)cc1)NCC1CCCO1 (stereo unspecified) | inactive: 5.38% |
| COc1ccc(-c2cn3c(n2)sc2cc(C(=O)Nc4c(C)cccc4C)ccc23)cc1 | inactive: 3.02% |
| Cc1ccc(CNC(=O)C2(c3cccs3)CCOCC2)cc1 | inactive: 14.7% |
| Cc1cc(C)cc(Nc2nc3ccccc3nc2-n2nc(C)cc2C)c1 | inactive: -12.5% |
| CCOC(=O)N1CCc2c(sc3c2c(=O)n(Cc2ccccc2)c(=O)n3CC(=O)Nc2cccc(C)c2)C1 | inactive: -2.29% |
| CCOc1ccc(NC(=O)CSc2ncnc3c2sc2ccccc23)cc1 | inactive: -7.93% |
| COc1ccc(C(=O)n2nc(-c3ccc(Cl)cc3)nc2NCc2ccco2)cc1 | inactive: 3.61% |
| CN(C)S(=O)(=O)c1ccc(C(=O)Nc2c(C(=O)Nc3ccc(F)cc3)oc3ccccc23)cc1 | inactive: 5.2% |

| SMILES | activity change, negative = cytotoxicity |
| --- | --- |
| CCc1ccc(NC(=O)c2cc3c(COC(C)=O)cnc(C)c3oc2=O)cc1 | inactive: 0.711% |
| CCCCC(=O)Nc1cc(-c2nc3cccnc3s2)ccc1C | inactive: -1.93% |
| O=C(c1ccccc1)c1ccc2nc(N3CCN(c4ccccc4)CC3)c3nncn3c2c1 | inactive: -0.836% |
| Cc1ccc(CNC(=O)c2ccc3c(c2)NC(=O)C(CS(=O)(=O)Cc2ccc(F)cc2)N3)cc1 (stereo unspecified) | inactive: -2.18% |
| COc1ccccc1C(=O)Nc1c(C(=O)N2CCN(c3ccccc3F)CC2)oc2ccccc12 | inactive: 7.04% |
| COc1ccc(NC(=O)CCCSc2nc(-c3ccco3)cc(C(F)(F)F)n2)cc1 | inactive: 3.3% |
| Cc1ccc(NC(=O)c2ccc(COc3ccccc3Cl)o2)cc1 | inactive: -9.39% |
| Cc1cc2c(cc1S(=O)(=O)NCc1ccccc1)OCC(=O)N2 | inactive: 0.579% |
| CCC1CCCCN1CCCNC(=O)c1cn(CC)c2ccc(S(=O)(=O)N(C)C3CCCCC3)cc2c1=O (stereo unspecified) | inactive: -20.1% |
| Cc1nc2ccc(S(=O)(=O)CCC(=O)Nc3ccc(C(C)C)cc3)cc2s1 | inactive: -2.15% |
| CCS(=O)(=O)N1CCC2(CC1)OC(=O)C(C)=C2C(=O)NCc1cccc(Cl)c1 | inactive: 27.6% |
| CCn1c(COc2cccc(C)c2)nc2ccccc21 | inactive: -3.88% |
| O=S(=O)(c1ccc(Br)cc1)c1nc(-c2cccs2)oc1SCc1ccc(F)cc1 | inactive: -6.38% |
| Cc1[nH]c2ccc(C(=O)Nc3ccc(F)cc3)cc2c1C | inactive: -28.8% |
| Cc1ccccc1CN1C(=O)c2ccccc2S(=O)c2ccc(C(=O)NCc3ccco3)cc21 (stereo unspecified) | inactive: -3.07% |
| CCN(C(=O)CCS(=O)(=O)c1ccc2c(c1)oc(=O)n2C)c1ccc(OC)cc1 | inactive: -20.4% |
| Cc1ccc(NC(=O)CSc2nc3c(c(=O)[nH]2)CCC3)cc1Cl | inactive: -6% |
| CCn1c(SCC(=O)Nc2ccccc2)nc2c([nH]c3ccccc32)c1=O | inactive: 21.1% |
| CC(C)CCNC(=O)CCC(=O)N1Cc2ccccc2Oc2ncccc21 | inactive: -0.126% |
| COc1cc2c(cc1NC(=O)COc1ccc(Br)cc1C)oc1ccccc12 | inactive: 0.182% |
| Cc1ccc(C)c(N2CCN(C(=O)C3CCN(C(=O)c4cc5sccc5n4C)CC3)CC2)c1 | inactive: -24.8% |

| SMILES | activity change, negative = cytotoxicity |
| --- | --- |
| COc1cccc(-n2c(=O)c3cc(OC)c(OC)cc3n(CC(=O)Nc3ccccc3)c2=O)c1 | inactive: 13.4% |
| O=C(c1ccc2c(c1)N(Cc1ccc(F)cc1)C(=O)c1ccccc1S2(=O)=O)N1CCCCCC1 | inactive: -11.9% |
| CCOc1ccc(NC(=O)CSC2=Nc3ccccc3C3=NC(CC(=O)NCc4ccccc4OC)C(=O)N23)cc1 (stereo unspecified) | inactive: 6.13% |
| Cc1ccc(N2CC(NC(=O)c3ccco3)CC2=O)cc1 (stereo unspecified) | inactive: 2.69% |
| Cc1ccc(S(=O)(=O)Nc2ccc3[nH]c(=O)sc3c2)cc1C | inactive: -16.1% |
| O=C(c1ccc2c(c1)N(Cc1ccc(Cl)cc1)C(=O)c1ccccc1S2(=O)=O)N1CCC(Cc2ccccc2)CC1 | inactive: 20.4% |
| Cc1ccc(S(=O)Cc2ccc(C(=O)NC3CCCCCC3)o2)cc1 (stereo unspecified) | inactive: -6.82% |
| Cc1ccc(C)c(S(=O)(=O)c2cn(C)c3cc(F)c(F)cc3c2=O)c1 | inactive: 8.78% |
| CC(=O)Nc1ccccc1-c1nc2ccccc2n(CC(=O)Nc2ccc(C)c(Cl)c2)c1=O | inactive: -9.61% |
| COc1ccc(CCn2c(=O)c3ccccc3n(CC(=O)Nc3cccc(C)c3)c2=O)cc1OC | inactive: 8.01% |
| O=C(NCc1ccc2c(c1)OCO2)c1ccc2c(c1)N(Cc1ccccc1F)C(=O)c1ccccc1S2=O (stereo unspecified) | inactive: -6.47% |
| CCc1nnc(NC(=O)c2nc(SC)ncc2Cl)s1 | inactive: 5.9% |
| CCSc1oc(-c2cccs2)nc1S(=O)(=O)c1ccc(Br)cc1 | inactive: -0.664% |
| NC(=O)CSc1nc2c(oc3ccccc32)c(=O)n1Cc1ccccc1 | inactive: -2.79% |
| Cc1ccccc1C(=O)Nc1c(C(=O)Nc2cccc(F)c2)oc2ccccc12 | inactive: -1.77% |
| COc1ccccc1CNC(=O)C1CCN(C(=O)c2sccc2-n2cccc2)CC1 | inactive: -1.72% |
| CN(C1CCCCC1)S(=O)(=O)c1ccc2c(c1)c(=O)c(C(=O)NCc1ccc(F)cc1)cn2C | inactive: 5.36% |
| CCn1ccc2c(OCC(=O)Nc3ccc(C(C)=O)cc3)cccc2c1=O | inactive: -4.09% |
| COc1ccccc1CNC(=O)c1cc2c(-c3ccc(Cl)cc3)nn(C)c2s1 | inactive: -10.8% |
